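These data come from cells grown in 96-well plates and exposed to compound for 48 hours at five concentrations. GI50 is the concentration that inhibits growth by half.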 Calls of active or inactive are those of the source. Cut-off read from the data, not from the text of the source: active = GI50 up to about 1.1 µM and inactive = higher.
Test system: NCI-H322M
Assay: growth of human tumour cells (NCI), 48 h

Compound | GI50
O=C1C(C(O)(C(F)(F)Cl)C(F)(F)Cl)CCCC1C(O)(C(F)(F)Cl)C(F)(F)Cl (stereo unspecified) | inactive: > 10 µM
CSc1c(C#N)c(N)n(-c2ccc(Cl)cc2)c(=O)c1C#N | inactive: 76.2 µM
CC(NC(=O)C(Cc1ccc(OC(=O)c2ccccc2)cc1)NC(=O)OC(C)(C)C)C(=O)NCC(=O)NC(Cc1ccccc1)NC(=O)OCc1ccccc1 (stereo unspecified) | inactive: > 100 µM
Cc1cc(NCCCCCCCCCC[n+]2c(C)cc(N)c3ccccc32)c2ccccc2n1 | inactive: 2.99 µM
C[C@@H]1OC(=O)C[C@H]2CC(=O)N(CCC3CN(C(=O)OCc4ccccc4)c4ccccc43)C[C@@H]21 (stereo partly specified) | inactive: > 100 µM
CC(C)=CCC[C@]1(C)C=Cc2c(O)c3c(c(CC=C(C)C)c2O1)O[C@]12C(=C[C@@H]4CC1C(C)(C)O[C@@]2(C/C=C(/C)C(=O)O)C4=O)C3=O | inactive: 2.16 µM
Cc1cccc2sc(NC(=O)NS(=O)(=O)n3cnc4ccccc43)nc12 | inactive: 32.1 µM
CCOP(=O)(CC(=O)C1CC1)OCC | inactive: > 100 µM
O=C(N/N=C/c1ccc(Br)cc1)N/N=C/c1ccc(Br)cc1 | inactive: 5.68 µM
Cn1ccnc1Sc1ccc(/C=N\NC(=O)c2cccc(F)c2)cc1[N+](=O)[O-] | inactive: 25.8 µM
O=C(O)C1Cc2[nH]c3ccccc3c2C2CCCC12 (stereo unspecified) | inactive: > 100 µM
Cc1cc(NS(=O)(=O)c2ccc(Nc3c4ccccc4nc4c(C(=O)Nc5ccc(S(=O)(=O)N=C(N)N)cc5)cccc34)cc2)no1 | inactive: > 100 µM
COC(=O)C(=O)C(C(=O)C(=O)Nc1ccc(C)cc1)c1nc2ccc(C(=O)c3ccccc3)cc2nc1O (stereo unspecified) | inactive: > 100 µM
CN(C)C=[N+]=[N-] | inactive: > 100 µM
COC1CC(=O)C2C(=O)N(c3ccccc3)C(=O)C23C(C(=O)c2ccccc2)=C(C)NC13O (stereo unspecified) | inactive: 26.6 µM
CC(C)c1ccc(Cc2ccc(C(C)C)c(NC(=O)C(=O)Cc3cnc4ccccc4n3)c2C(C)C)c(C(C)C)c1NC(=O)C(=O)Cc1cnc2ccccc2n1 | inactive: > 100 µM
C=C1c2ccccc2Oc2nc3nc(N)c(C#N)c(N)c3c(N)c21 | inactive: 32.1 µM
CC(C)C(Sc1nc(N)nc2nc[nH]c12)C(=O)O (stereo unspecified) | inactive: > 100 µM
N#Cc1ccc(Oc2ccccc2)cc1C#N | inactive: > 100 µM
O=C(O)CCO/N=C1/C(=C2/C(=O)Nc3ccccc32)Nc2ccccc21 | inactive: 20.8 µM
C1CSC[C@H]2COC[C@@H](CSCCS1)S2 | inactive: > 100 µM
O=C(CN1C(=O)c2ccccc2C1=O)OC1C=CCCC1 (stereo unspecified) | inactive: > 100 µM

Compound | GI50
Nc1cccc2c1C(=O)c1cccc(N)c1C2=O | inactive: > 100 µM
Cc1[nH]c2c(C)cccc2c1C1Cc2ccccc2N1 (stereo unspecified) | inactive: 25.4 µM
CN1C2CCC1CC(C)(O)C2 (stereo unspecified) | inactive: > 100 µM
CC(=O)N(/N=C\c1ccc([N+](=O)[O-])cc1)c1ccccc1 | inactive: 48.6 µM
CC(=O)c1c2c(cc3c1CCC3)CCC2 | inactive: > 100 µM
NNC1=NC(=O)NC(=O)C1 | inactive: > 100 µM
CCc1ccc(Nc2cc(=O)n(C)c(SCc3ccccc3)n2)cc1 | inactive: > 100 µM
CC(C)C1=CCC2C(=C1)CCC1C(C)(C(=O)O)CCCC21C (stereo unspecified) | inactive: > 100 µM
Nc1cc(N2CCCC2)nc(=O)n1Cc1ccccc1 | inactive: > 100 µM
COc1ccc(/C=C2\CCC(C)(CN(C)C)C2=O)cc1 (stereo unspecified) | inactive: > 100 µM
CC(=O)OC1COC(Nc2nc(N)n(C)c(=O)c2N=O)C(OC(C)=O)C1OC(C)=O (stereo unspecified) | inactive: > 10 µM
Cc1nc2c(=O)[nH]c(=O)n(C)c2[nH]c1=O.c1ccncc1 | inactive: > 100 µM
NCOC(=O)Cc1ccc(Br)cc1 | inactive: > 100 µM
CC(=O)Nc1c(C)cc2c(nc3n2CCC3O)c1[N+](=O)[O-] (stereo unspecified) | inactive: > 100 µM
O=C1C=CC2(C=C1)CCC(=O)O2 | inactive: 18.7 µM
Cc1ccc2c(=O)c(C(=O)Nn3c(C)csc3=S)c[nH]c2n1 | inactive: > 100 µM
COc1ccc2c(c1)C(=O)Cc1ccccc1CC2 | inactive: > 100 µM
COC(=O)C12OCC34C(CC5C(C)C6=CC(=O)OC6=CC5(C)C3C(O)C1O)OC(=O)C(O)C24 (stereo unspecified) | inactive: 7.08 µM
CC1CNC(c2ccc(COc3ccc(C4=NC(C)CN4)cc3)cc2)=N1 (stereo unspecified) | inactive: > 100 µM
CCOC1c2nc3ccccc3nc2-c2ccccc2N1C(C)=O (stereo unspecified) | inactive: > 100 µM
O=c1c2c(F)c(F)c(F)c(F)c2sc2nccn12 | inactive: 19.7 µM
O=C(O)/C=C/c1nc2ccccc2c(=O)o1 | inactive: > 100 µM

Compound | GI50
Cc1c(C)c2ccc3oc4ccccc4c3c2oc1=O | inactive: > 100 µM
CCCOC(=O)C1CCC(=O)N1C(=O)C(Cl)Cl (stereo unspecified) | inactive: > 100 µM
Nc1ncnc2oc(-c3cccs3)nc12 | inactive: > 100 µM
CCOC(=O)/C=C(/C(=O)OCC)n1ccc(=O)n(Cc2cn(CCCCOC(C)=O)nn2)c1=O | inactive: > 100 µM
Cc1ccc(NC(=O)C(Cc2c[nH]c3ccccc23)NC(=O)Oc2ccccc2)cc1C (stereo unspecified) | inactive: 18.6 µM
NC1=CN(CCCO)C2=N/C(=C\c3ccccc3)C(=O)N12 | inactive: > 100 µM
C=C1CCC2C(C)(CO)C(O)CCC2(C)C1CC(O)C1=CCOC1=O (stereo unspecified) | inactive: 49.3 µM
O=C(CCN1CCC(CCO)CC1)Nc1ccc2c(c1)C(=O)c1ccc(NC(=O)CCN3CCC(CCO)CC3)cc1C2=O | inactive: 4.39 µM
N#CC(c1ccccc1)N(CCCCCCN(C(=O)c1ccccc1)C(C#N)c1ccccc1)C(=O)c1ccccc1 (stereo unspecified) | inactive: 52.7 µM
CCC/N=C(/NC(=O)c1ccc(Cl)cc1)SC | inactive: > 100 µM
O=C1NC2(CCCCCC2)C2CCCCCCC12O (stereo unspecified) | inactive: > 100 µM
COc1nc2sc3c(c2c(=O)n1CCCSSCCCn1c(OC)nc2sc4c(c2c1=O)CCCC4)CCCC3 | inactive: > 100 µM
ClCCC[Si]12OCCN(CCO1)CCO2 | inactive: > 100 µM
COc1ccccc1C1C(Cl)C(=O)N1NC(=O)Cc1ccccc1 (stereo unspecified) | inactive: > 100 µM
COC(C)(C)C1(O)CC[C@@H](C)CC1=O (stereo partly specified) | inactive: > 100 µM
COC(=O)[C@@]12CCCC(=O)[C@@H]1[C@H]1CCC[C@H]12 | inactive: > 100 µM
COc1cc(OC)c2[nH]c3c(O)c(-c4c(C)cc5c([nH]c6c(OC)cc(OC)cc65)c4O)c(C)cc3c2c1 | inactive: 8.38 µM
CCOC(=O)CCC(NC(=O)OCc1ccccc1)C(=O)NC(CCC(=O)OCC)C(=O)NC(CCC(=O)OCC)C(=O)NC(CCC(=O)OCC)C(=O)NC(CCC(=O)OCC)C(=O)OCC (stereo unspecified) | inactive: > 100 µM
CC(=O)O[C@H]1C[C@@H](OC(C)=O)[C@@](C)(O)[C@@H]2[C@@H](OC(C)=O)[C@@]3(O)[C@H](/C=C(/CCl)[C@H]4O[C@H]4[C@@H](OC(C)=O)[C@@]12C)OC(=O)[C@@H]3C | inactive: > 25 µM
COc1ncc(/C=C2\OC(=O)c3ccccc32)c(OC)n1 | inactive: > 100 µM
C=C(CCCCCCCCC)CC(=O)SCCNC(=O)CCNC(=O)C(O)C(C)(C)COP(=O)(O)OP(=O)(O)OCC1OC(n2cnc3c(N)ncnc32)C(O)C1OP(=O)(O)O (stereo unspecified) | inactive: > 89.5 µM
O=C(/N=N/c1cc(Cl)ccc1Cl)NNc1cc(Cl)ccc1Cl | inactive: 27.4 µM
